Changes are numbered by the printed parent chain; changes in the protein carry UniProt numbers. The list shows a part of the results.
T1: RBFOX1 RRM RbFoxmut (Fox-RRM*) (Homo sapiens, UniProt Q9NWB1 109-208, R118D;E147R;N151S;E152T)
T1 sequence: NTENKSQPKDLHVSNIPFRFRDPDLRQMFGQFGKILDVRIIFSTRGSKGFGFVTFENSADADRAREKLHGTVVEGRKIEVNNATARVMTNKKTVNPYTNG

B1: CUCUCUA (DNA:RNA)
RNA: GGGAGACCGGAAUUCAGAUUGUCCCUCUCUAUUAAAUCCCGUCGUAGCCACCA
DNA 1: CAATCTGAATTCCGGTCTCCC
DNA 2: TGGTGGCTACGACGGGATT
B2: AAUAUGA (DNA:RNA)
RNA: B1 RNA with C25A, U26A, C27U, U28A, C29U, U30G
DNA 1: CAATCTGAATTCCGGTCTCCC
DNA 2: TGGTGGCTACGACGGGATT
B3: AAGAAGU (DNA:RNA)
RNA: GGGAGACCGGAAUUCAGAUUGUCCAAGAAGUUUAAAUCCCGUCGUAGCCACCA
DNA 1: CAATCTGAATTCCGGTCTCCC
DNA 2: TGGTGGCTACGACGGGATT
B4: UAGGAUC (DNA:RNA)
RNA: B3 RNA with A25U, A28G, G30U, U31C
DNA 1: CAATCTGAATTCCGGTCTCCC
DNA 2: TGGTGGCTACGACGGGATT
B5: GAGCAUA (DNA:RNA)
RNA: B3 RNA with A25G, A28C, G30U, U31A
DNA 1: CAATCTGAATTCCGGTCTCCC
DNA 2: TGGTGGCTACGACGGGATT
B6: GGCACUU (DNA:RNA)
RNA: B1 RNA with C25G, U26G, U28A, A31U
DNA 1: CAATCTGAATTCCGGTCTCCC
DNA 2: TGGTGGCTACGACGGGATT
B7: GCACUCC (DNA:RNA)
RNA: GGGAGACCGGAAUUCAGAUUGUCCGCACUCCUUAAAUCCCGUCGUAGCCACCA
DNA 1: CAATCTGAATTCCGGTCTCCC
DNA 2: TGGTGGCTACGACGGGATT
B8: AGGACAC (DNA:RNA)
RNA: B3 RNA with A26G, A29C, G30A, U31C
DNA 1: CAATCTGAATTCCGGTCTCCC
DNA 2: TGGTGGCTACGACGGGATT
B9: AUCGUUU (DNA:RNA)
RNA: B1 RNA with C25A, U28G, C29U, A31U
DNA 1: CAATCTGAATTCCGGTCTCCC
DNA 2: TGGTGGCTACGACGGGATT
B10: GAUAAGG (DNA:RNA)
RNA: B3 RNA with A25G, G27U, U31G
DNA 1: CAATCTGAATTCCGGTCTCCC
DNA 2: TGGTGGCTACGACGGGATT
B11: AGUCCAG (DNA:RNA)
RNA: B3 RNA with A26G, G27U, A28C, A29C, G30A, U31G
DNA 1: CAATCTGAATTCCGGTCTCCC
DNA 2: TGGTGGCTACGACGGGATT
B12: GCUACUC (DNA:RNA)
RNA: B7 RNA with A27U, C28A, U29C, C30U
DNA 1: CAATCTGAATTCCGGTCTCCC
DNA 2: TGGTGGCTACGACGGGATT
B13: GGUGUCU (DNA:RNA)
RNA: B7 RNA with C26G, A27U, C28G, C31U
DNA 1: CAATCTGAATTCCGGTCTCCC
DNA 2: TGGTGGCTACGACGGGATT
B14: GCGGCGA (DNA:RNA)
RNA: B3 RNA with A25G, A26C, A28G, A29C, U31A
DNA 1: CAATCTGAATTCCGGTCTCCC
DNA 2: TGGTGGCTACGACGGGATT
B15: GGUCAGC (DNA:RNA)
RNA: B7 RNA with C26G, A27U, U29A, C30G
DNA 1: CAATCTGAATTCCGGTCTCCC
DNA 2: TGGTGGCTACGACGGGATT
B16: ACAGGUG (DNA:RNA)
RNA: B7 RNA with G25A, C28G, U29G, C30U, C31G
DNA 1: CAATCTGAATTCCGGTCTCCC
DNA 2: TGGTGGCTACGACGGGATT
B17: UAGGCCA (DNA:RNA)
RNA: B3 RNA with A25U, A28G, A29C, G30C, U31A
DNA 1: CAATCTGAATTCCGGTCTCCC
DNA 2: TGGTGGCTACGACGGGATT
B18: GGCCGCU (DNA:RNA)
RNA: B7 RNA with C26G, A27C, U29G, C31U
DNA 1: CAATCTGAATTCCGGTCTCCC
DNA 2: TGGTGGCTACGACGGGATT
B19: GCGGGGG (DNA:RNA)
RNA: B3 RNA with A25G, A26C, A28G, A29G, U31G
DNA 1: CAATCTGAATTCCGGTCTCCC
DNA 2: TGGTGGCTACGACGGGATT
B20: AUAAGGU (DNA:RNA)
RNA: B3 RNA with A26U, G27A, A29G
DNA 1: CAATCTGAATTCCGGTCTCCC
DNA 2: TGGTGGCTACGACGGGATT
B21: UAUUUAG (DNA:RNA)
RNA: B3 RNA with A25U, G27U, A28U, A29U, G30A, U31G
DNA 1: CAATCTGAATTCCGGTCTCCC
DNA 2: TGGTGGCTACGACGGGATT
B22: AGAGCCG (DNA:RNA)
RNA: B7 RNA with G25A, C26G, C28G, U29C, C31G
DNA 1: CAATCTGAATTCCGGTCTCCC
DNA 2: TGGTGGCTACGACGGGATT
B23: AAUGUGC (DNA:RNA)
RNA: B3 RNA with G27U, A28G, A29U, U31C
DNA 1: CAATCTGAATTCCGGTCTCCC
DNA 2: TGGTGGCTACGACGGGATT
B24: CGCUUAG (DNA:RNA)
RNA: B1 RNA with U26G, C29U, U30A, A31G
DNA 1: CAATCTGAATTCCGGTCTCCC
DNA 2: TGGTGGCTACGACGGGATT
B25: CUAGUGU (DNA:RNA)
RNA: B3 RNA with A25C, A26U, G27A, A28G, A29U
DNA 1: CAATCTGAATTCCGGTCTCCC
DNA 2: TGGTGGCTACGACGGGATT
B26: CACGGCU (DNA:RNA)
RNA: B3 RNA with A25C, G27C, A28G, A29G, G30C
DNA 1: CAATCTGAATTCCGGTCTCCC
DNA 2: TGGTGGCTACGACGGGATT
B27: AGGGUCG (DNA:RNA)
RNA: B3 RNA with A26G, A28G, A29U, G30C, U31G
DNA 1: CAATCTGAATTCCGGTCTCCC
DNA 2: TGGTGGCTACGACGGGATT
B28: UUGAUCG (DNA:RNA)
RNA: B3 RNA with A25U, A26U, A29U, G30C, U31G
DNA 1: CAATCTGAATTCCGGTCTCCC
DNA 2: TGGTGGCTACGACGGGATT
B29: GAGUCUA (DNA:RNA)
RNA: B1 RNA with C25G, U26A, C27G
DNA 1: CAATCTGAATTCCGGTCTCCC
DNA 2: TGGTGGCTACGACGGGATT
B30: CCGUACG (DNA:RNA)
RNA: B3 RNA with A25C, A26C, A28U, G30C, U31G
DNA 1: CAATCTGAATTCCGGTCTCCC
DNA 2: TGGTGGCTACGACGGGATT
B31: CCAGAGG (DNA:RNA)
RNA: B3 RNA with A25C, A26C, G27A, A28G, U31G
DNA 1: CAATCTGAATTCCGGTCTCCC
DNA 2: TGGTGGCTACGACGGGATT

Each binder was assayed against T1, RBFOX1 RRM RbFoxmut (Fox-RRM*) (assay: EMSA; HiTS-Eq, 1 nM pool, 10 min; buffer printed only for the single-RNA assays: 10 mM Tris pH 7.5, 150 mM NaCl, 3.4 mM EDTA, 0.001% NP-40, 30 C). Conditions: tags: His6 N-terminal (pET28a); label: 5' 32P.
Summary of the method: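 Purified wild-type or mutant RbFox RRM at increasing concentrations was equilibrated with 1 nM of 5′-radiolabelled RNA carrying 7 randomized nucleotides for 10 min in 50 µL. Unbound RNA was separated by 8% native PAGE and sequenced. Relative association constants came from read-count changes of each RNA species compared with the control reaction, normalised to the cognate motif.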

| Binder | binding signal |
| --- | --- |
| B1 | 0.111 KA relative to UGCAUGU |
| B2 | 0.0642 KA relative to UGCAUGU |
| B3 | 0.137 KA relative to UGCAUGU |
| B4 | 0.0992 KA relative to UGCAUGU |
| B5 | 0.114 KA relative to UGCAUGU |
| B6 | 0.0565 KA relative to UGCAUGU |
| B7 | 0.0438 KA relative to UGCAUGU |
| B8 | 0.0652 KA relative to UGCAUGU |
| B9 | 0.112 KA relative to UGCAUGU |
| B10 | 0.0515 KA relative to UGCAUGU |
| B11 | 0.113 KA relative to UGCAUGU |
| B12 | 0.0593 KA relative to UGCAUGU |
| B13 | 0.122 KA relative to UGCAUGU |
| B14 | 0.101 KA relative to UGCAUGU |
| B15 | 0.0924 KA relative to UGCAUGU |
| B16 | 0.134 KA relative to UGCAUGU |

| Binder | binding signal |
| --- | --- |
| B17 | 0.0765 KA relative to UGCAUGU |
| B18 | 0.0597 KA relative to UGCAUGU |
| B19 | 0.102 KA relative to UGCAUGU |
| B20 | 0.0832 KA relative to UGCAUGU |
| B21 | 0.122 KA relative to UGCAUGU |
| B22 | 0.11 KA relative to UGCAUGU |
| B23 | 0.13 KA relative to UGCAUGU |
| B24 | 0.129 KA relative to UGCAUGU |
| B25 | 0.168 KA relative to UGCAUGU |
| B26 | 0.0716 KA relative to UGCAUGU |
| B27 | 0.241 KA relative to UGCAUGU |
| B28 | 0.24 KA relative to UGCAUGU |
| B29 | 0.0954 KA relative to UGCAUGU |
| B30 | 0.169 KA relative to UGCAUGU |
| B31 | 0.0884 KA relative to UGCAUGU |
